Results published in publication PMC6919601, “Identification of Plasmodium dipeptidyl aminopeptidase allosteric inhibitors by high throughput screening” (PLoS ONE, 2019).
Values joined by “and” are separate entries in the source; they are usually repeats but may differ in a detail not shown here. Identical values can stand only once. Hit rate of the full screen: of about 110,000 compounds, about 230 (0.21%) showed an effect of 50% or more. The list shows a part of the results.

These molecules were tested against DPAP1 (Plasmodium falciparum, UniProt Q8IIJ9) (assay: primary screen, percent inhibition; read by cleavage of a fluorogenic dipeptide substrate; higher = more effect of the substance).
Set-up: species or system P. falciparum D10 trophozoite lysates; single well
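Also: 30 min substrate incubation versus DMSO and 10 µM JCP410 controls.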

Chain of DPAP1 (Q8IIJ9 whole entry, looked up): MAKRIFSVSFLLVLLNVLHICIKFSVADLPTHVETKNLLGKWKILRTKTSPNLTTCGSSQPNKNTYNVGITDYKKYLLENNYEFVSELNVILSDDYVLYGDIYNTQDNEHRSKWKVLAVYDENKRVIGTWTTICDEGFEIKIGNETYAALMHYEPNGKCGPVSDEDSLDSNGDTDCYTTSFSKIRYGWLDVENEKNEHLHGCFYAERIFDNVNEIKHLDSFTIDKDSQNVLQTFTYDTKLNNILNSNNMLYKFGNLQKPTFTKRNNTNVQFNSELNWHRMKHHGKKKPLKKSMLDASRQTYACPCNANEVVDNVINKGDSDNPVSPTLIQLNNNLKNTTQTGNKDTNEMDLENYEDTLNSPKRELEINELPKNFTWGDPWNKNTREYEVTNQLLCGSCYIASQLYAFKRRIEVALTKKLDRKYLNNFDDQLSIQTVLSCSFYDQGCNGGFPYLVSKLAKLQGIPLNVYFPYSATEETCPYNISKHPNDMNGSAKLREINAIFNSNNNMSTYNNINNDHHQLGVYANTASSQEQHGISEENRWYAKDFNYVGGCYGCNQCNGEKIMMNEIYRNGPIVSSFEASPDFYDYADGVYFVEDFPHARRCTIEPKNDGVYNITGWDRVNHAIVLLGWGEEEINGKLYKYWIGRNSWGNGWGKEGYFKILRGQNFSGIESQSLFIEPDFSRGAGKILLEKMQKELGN

| SMILES | % Inhibition @ 10 uM |
| --- | --- |
| CC(=O)Nc1ccc(Nc2nc(-c3ccccc3)nc3ccccc23)cc1 | -0.992% |
| CC(C)c1nnc(NC(=O)/C=C/c2ccccc2)s1 | 10.8% |
| CCOCCCNC(=O)C1CCCN(S(=O)(=O)N2CCN(C(=O)OCC)CC2)C1 (stereo not shown) | 2.05% |
| CCOc1ccccc1C(=O)Nc1ccc(C(C)C)cc1 | -1.07% |
| CCCCN(C)Cc1cc(Br)c(O)c(OC)c1 | -1.86% |
| O=C(CN(Cc1ccc(Cl)cc1)S(=O)(=O)c1ccccc1)N1CCCCCC1 | -1.26% |
| CCOC(=O)c1sc(NC(=O)c2cc(-c3ccc(OC)cc3)on2)c(C(=O)OCC)c1C | 0.723% |
| COc1ccc(-c2nc(SCC(=O)NCC3CCCO3)c(-c3ccc(F)cc3)[nH]2)cc1OC (stereo not shown) | -0.0521% |
| Cc1ccc(C2(c3ccc(C)cc3)CC2C(=O)Nc2ccc([N+](=O)[O-])cc2)cc1 (stereo not shown) | -0.0217% |
| O=C(Nc1ccccc1Cl)C1CC(=O)N(c2ccccc2F)C1 (stereo not shown) | -10.4% |
| CCC(C(=O)Nc1nnc(Cc2ccccc2F)s1)c1ccccc1 (stereo not shown) | -3.78% |
| O=C(c1cccs1)N1CCC(Cc2ccccc2)CC1 | -6.07% |
| COc1ccc(-c2nc(CNS(=O)(=O)c3cc(OC)ccc3OC)cs2)cc1 | -6.09% |
| Cc1oc(-c2ccc(C(=O)N3CCC(C(N)=O)CC3)cc2)nc1COc1ccccc1 | 3.8% |
| COc1ccc(OC)c(C2C3=C(O)CCCC3=Nc3ccc4nc(C)ccc4c32)c1 (stereo not shown) | 5.48% |
| CCCn1c2c(c(O)c(C(=O)Nc3ncccc3C)c1=O)CCCC2 | -0.458% |
| COc1ccc(S(=O)(=O)c2cnc3ccc(OC)cc3c2N2CCCCC2)cc1 | 1.47% |
| CCc1nn(CC(=O)NCCc2cccs2)c(=O)c2cc3ccccc3n12 | -5.37% |
| Cc1c(C#N)c(O)nc(O)c1/C=N/c1ccc(S(=O)(=O)N(C)C)cc1 | 2.67% |
| CCc1cccc(NC(=O)c2ccc(C)o2)c1 | -1.63% |
| O=S(=O)(Nc1cccc(-c2cn3cccnc3n2)c1)c1ccccc1 | -3.26% |
| Cc1ccc(-c2noc(CN(C)S(=O)(=O)c3c(C)cc(C)cc3C)n2)cc1 | 4% |
| COc1ccc(-c2cc(C(=O)NC3CC3)[nH]n2)cc1 | -1.3% |
| CN(CCC#N)C(=O)COc1ccc2c(c1)C(=O)CC(C)(C)O2 | -3.12% |
| CC(C)CC(C(=O)NCC#N)c1cccc(-c2ccc(S(=O)(=O)NCCCN3CCOCC3)cc2)c1 (stereo not shown) | -1.41% |

| SMILES | % Inhibition @ 10 uM |
| --- | --- |
| COC(=O)c1cc2ccsc2n1Cc1ccc(C)cc1 | -3.67% |
| O=C1c2cccc3cccc(c23)C(=O)N1CCN1CCOCC1 | -1.29% |
| CC(C)n1c(CN2CCOCC2)nc2c1c(=O)n(C)c(=O)n2C | -1.11% |
| COc1ccc(N(CC(=O)N2CCN(Cc3ccccc3)CC2)S(C)(=O)=O)cc1 | -9.45% |
| Cc1c(C)n(Cc2ccc(F)cc2)c2ccc(C(=O)NCCc3ccco3)cc12 | -3.76% |
| CC(CCc1ccccc1)NC(=O)CN(C)c1nnc(N2CCCC2=O)s1 (stereo not shown) | 1.31% |
| CCc1cccc(NC2CC(=O)N(c3ccccc3)C2=O)c1 (stereo not shown) | 3.17% |
| CCN(CC)CCCNC(=O)Cn1cc2c(n1)CCC(C)C2 (stereo not shown) | 0.137% |
| CCO/C(O)=C1\C(C)=Nc2nc(C)nn2C1c1cc(OC)ccc1OC (stereo not shown) | -3.41% |
| CC1CCCC(N(C)CCN(C)C)C1 (stereo not shown) | -3.6% |
| O=C(Nc1ccc(Cl)c(Cl)c1)C12CC3CC(CC(C3)C1)C2 | 3.1% |
| CCCS(=O)(=O)N1N=C(c2ccc(C)cc2)CC1c1ccco1 (stereo not shown) | 1.05% |
| O=C(NC12CC3CC(CC(C3)C1)C2)c1ccc2c(c1)OCO2 | -1.44% |
| COC(=O)c1c(NC(=O)c2ccccc2Br)sc(C)c1C | 18.5% |
| COc1ccc(C2=N/C(=C\C(C)=C\c3ccccc3)C(=O)O2)c(Cl)c1 | 6.1% |
| CS(=O)(=O)c1ccc(N2CCC(c3ccc(Cl)cc3)=N2)cc1 | 9.71% |
| CC1=C(C(=O)Nc2ccccn2)C(c2cccc(Br)c2)n2ncnc2N1 (stereo not shown) | -1.57% |
| COc1ccc(C2=N/C(=C\C=C\c3ccccc3)C(=O)O2)cc1OC | 1.25% |
| O=S(=O)(c1ccc(F)cc1)N1CCN=C1c1ccccc1 | 5.49% |
| CCCOc1ccc(C2C(C(=O)OCC)=CN(Cc3ccc(OC)cc3)C=C2C(=O)OCC)cc1 | 0.00995% |
| CN(C)Cc1c[nH]c2cc([N+](=O)[O-])ccc12 | -1.45% |
| C=CCOc1ccc(-c2nc(O)c3c(n2)Oc2c(cccc2OC)C3)cc1 | 6.98% |
| O=C(c1scc2c1CCCC2)N1CCN(c2ccc(F)cc2)CC1 | -0.463% |
| COc1ccc(OC)c(C(=O)c2ccc(C(=O)NC(C)(C)C)cc2)c1 | 0.605% |
| COCc1[nH]nc2c1C(c1cccc(Br)c1)C(C#N)=C(N)O2 (stereo not shown) | -5.96% |

| SMILES | % Inhibition @ 10 uM |
| --- | --- |
| CC1(C)NC(=O)N(CC(O)COc2ccc(F)cc2)C1=O (stereo not shown) | 10.9% |
| CC(O)CNc1ncnc2c1c(-c1ccccc1)cn2-c1ccccc1 (stereo not shown) | 10.8% |
| N#CCNC(=O)C(CSC(N)=O)NC(=O)OCc1ccccc1 (stereo not shown) | 1.71% |
| COc1ccc(C(=O)N/C(=C\c2ccc3c(c2)OCO3)C(=O)NCc2ccccc2)cc1 | -4.49% |
| CCCN(CCO)C1CCN(CCc2ccccc2)CC1 | -2.91% |
| CN(C)c1nc(-c2ccccc2)c(NC(=O)c2ccccc2)c(-c2ccccc2)n1 | -1.56% |
| Cc1nn(Cc2noc(C(=O)NC3CCC(C)CC3)n2)c(C)c1Br (stereo not shown) | 4.57% |
| COc1ccc2[nH]cc(C3N4CC5(C)CN3CC(C)(C4)C5=O)c2c1 (stereo not shown) | -3.13% |
| Cc1cc(Br)cc2c[nH]nc12 | -1.24% |
| Cc1ccc(OCCCCCCN2CCCCC2)cc1 | -2.28% |
| CCc1ccc(C(=O)c2cn(CC(=O)NCc3ccccc3)c3nc(C)ccc3c2=O)cc1 | 2.18% |
| O=C(CSc1ccc(Cl)cc1)Nc1ccc2c(c1)OCO2 | -3.83% |
| CC(Nc1nn2nnnc2c2ccccc12)C12CC3CC(CC(C3)C1)C2 (stereo not shown) | 1.67% |
| COc1ccc(CO/C(O)=C2/C(C)=NC3=C(C(=O)CCC3)C2c2ccc(Br)cc2)cc1 (stereo not shown) | 25.8% |
| CCCn1c2c(c(O)c(C(=O)Nc3cccc(C)n3)c1=O)CCCC2 | -0.458% |
| CCOc1ccccc1C(=O)Nc1cc(C)ccn1 | 0.408% |
| COc1ccc2cc(/N=C/c3nc(-c4cccc5ccccc45)oc3O)cnc2c1 | -4.76% |
| Cc1cc2n(n1)C(c1ccc3c(c1)OCO3)Nc1ccccc1-2 (stereo not shown) | 3.72% |
| O=C1CC(=O)N(c2ccccc2Cl)C(=S)N1 | -0.833% |
| NC(=O)Nc1ccccc1C(=O)Nc1ccc2ccccc2c1 | -1.84% |
| Cn1ncc2c(NC3CCCC3)ncnc21 | 4.61% |
| CN(C)CCNC(=O)C(=O)NCC(c1cccnc1)N1CCOCC1 (stereo not shown) | -3.51% |
| CC1CCN(c2nc3c(c(C(F)(F)F)n2)CCCCC3)CC1 | 0.505% |
| CN(C1=C(N2CCCC2)C(=O)c2ccccc2C1=O)c1ccccc1 | 3.18% |
| CC1CCC(NC(=O)CCCNS(=O)(=O)c2cccc3nsnc23)CC1 (stereo not shown) | 0.317% |

| SMILES | % Inhibition @ 10 uM |
| --- | --- |
| COc1cc(OC)c(C2C3=C(O)CC(C)(C)CC3=Nc3ncnn32)cc1OC (stereo not shown) | 3.32% |
| CCCNC(=O)C1CCN(c2nnc(C)c3c(C)n(-c4ccc(Cl)cc4)nc23)CC1 | 6.62% |
| CCCCCCNc1nc(OCC)nc(N2CC3CC(C2)c2cccc(=O)n2C3)n1 (stereo not shown) | -0.703% |
| CC1CCC(C(=O)NC(Cc2c[nH]c3ccccc23)C(=O)Nc2ccncc2)CC1 (stereo not shown) | -3.27% |
| Fc1ccccc1C1CC(c2ccc(Cl)cc2)=NN1c1cccc(Br)c1 (stereo not shown) | 0.035% |
| O=C1c2cccc3cccc(c23)C(=O)N1c1ccc(O)cc1 | -5.49% |
| O=C(c1ccc2c(c1)C(=O)N(Cc1ccco1)C2O)N1CCOCC1 (stereo not shown) | -2.88% |
| Oc1nc(S)nc2c1C1(CCCC1)Cc1ccccc1-2 | -5.62% |
| O=C(CCCCCNc1nc(S)nc2ccccc12)NC1CCCC1 | 0.0904% |
| Cc1ccc(OCCCCCN2CCCC2)cc1C | 1.35% |
| CCCCCCCC(=O)C1C(=O)C=C(C)OC1=O (stereo not shown) | -3.77% |
| CCOc1ccc2oc(=O)cc(CN3CCC(Cc4ccccc4)CC3)c2c1 | 0.00706% |
| Cc1cc(-c2ccc(NC(=O)C3CCCO3)c(C)c2)ccc1NC(=O)C1CCCO1 (stereo not shown) | -1.42% |
| COC(=O)c1ccc(COc2ccc3oc(-c4ccc(OC)cc4)cc(=O)c3c2)cc1 | 1.32% |
| C/N=c1\c(NS(=O)(=O)c2ccc(C(C)(C)C)cc2)c(O)oc2ccccc12 | 2% |
| Cc1ccc(NC(=O)CN2C(=O)c3ccccc3C2=O)c(Br)c1 | 9.29% |
| Cc1ccc(Sc2ccncc2S(=O)(=O)NC(=O)c2ccc(Cl)cc2)cc1 | 0.408% |
| CN(C(=O)c1ccc2c(c1)C(=O)N(CCC1=CCCCC1)C2=O)C1CCCCC1 | 2.94% |
| C=CCn1c(SCC(=O)NCC2CCCO2)nc2scc(-c3ccccc3Cl)c2c1=O (stereo not shown) | -1.28% |
| COc1ccc2nc(N(CCN(C)C)C(=O)c3cccs3)sc2c1 | -4.73% |
| CCCCN(C)CCNC(=O)Cn1ncc2c1-c1cc(C)ccc1OC2 | -5.54% |
| COc1cccc2cc(-c3nc4cc(C(=O)O)ccc4[nH]3)c(=O)oc12 | 2.97% |
| Cc1ccc(Oc2cc(-n3ccc(C)n3)ncn2)cc1 | 1.35% and 1.88% |
| O=C(NCc1nc(-c2ccccc2)no1)C12CC3CC(CC(C3)C1)C2 | -6.72% |
| COc1ccc(C)c2sc(N(CCN(C)C)C(=O)COc3ccccc3)nc12 | 7.69% |
